Measured values published in paper PMC6919601, “Identification of Plasmodium dipeptidyl aminopeptidase allosteric inhibitors by high throughput screening” (PLoS ONE, 2019).
In all, about 110,000 compounds went through this assay and about 230 (0.21%) showed an effect of 50% or more. Some of the results follow.

Target: DPAP1 (Plasmodium falciparum, UniProt Q8IIJ9)
Experiment: primary screen, percent inhibition; read by cleavage of a fluorogenic dipeptide substrate; higher = more effect of the substance
Design: species or system P. falciparum D10 trophozoite lysates; single well
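Also: 30 min substrate incubation versus DMSO and 10 µM JCP410 controls.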

DPAP1, sequence (Q8IIJ9 whole entry, looked up): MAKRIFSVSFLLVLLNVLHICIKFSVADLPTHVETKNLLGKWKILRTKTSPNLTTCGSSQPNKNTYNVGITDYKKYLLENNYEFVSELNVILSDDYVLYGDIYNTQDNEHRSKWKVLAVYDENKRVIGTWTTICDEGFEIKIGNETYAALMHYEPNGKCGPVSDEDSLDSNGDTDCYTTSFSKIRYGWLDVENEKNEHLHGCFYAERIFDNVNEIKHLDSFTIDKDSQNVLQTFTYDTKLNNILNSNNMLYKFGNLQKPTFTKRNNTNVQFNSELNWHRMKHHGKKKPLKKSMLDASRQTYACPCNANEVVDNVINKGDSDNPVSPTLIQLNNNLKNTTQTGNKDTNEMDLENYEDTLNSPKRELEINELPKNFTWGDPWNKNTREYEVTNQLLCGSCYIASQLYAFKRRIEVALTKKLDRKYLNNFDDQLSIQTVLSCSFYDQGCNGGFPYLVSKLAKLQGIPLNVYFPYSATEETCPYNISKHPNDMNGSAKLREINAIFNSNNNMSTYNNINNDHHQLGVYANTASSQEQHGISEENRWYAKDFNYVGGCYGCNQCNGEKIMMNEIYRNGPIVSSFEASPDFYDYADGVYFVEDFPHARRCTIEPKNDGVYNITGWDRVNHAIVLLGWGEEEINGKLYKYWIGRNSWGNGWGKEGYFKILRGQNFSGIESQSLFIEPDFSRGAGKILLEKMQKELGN

Row | SMILES | % Inhibition @ 10 uM
1 | O=C(O)C1C2C=CC(C2)C1C(=O)N1CCCC1 (stereo not drawn) | -9.11%
2 | COCCNC(=S)N(CCc1c(C)[nH]c2ccc(C)cc12)Cc1cccs1 | 0.813%
3 | CS(=O)(=O)N(CC(=O)N1CCCCCC1)c1ccc(Br)cc1 | 1.39%
4 | O=C(c1ccco1)N1CCN(Cc2nnc(-c3cccc(Cl)c3)o2)CC1 | 1.49%
5 | Cc1onc(-c2ccccc2)c1C(=O)NCc1ccc(Cl)cc1 | 4%
6 | CC(C)n1cc(/C=C2/SC(=O)N(CC(=O)Nc3ccc4c(c3)OCO4)C2=O)c2ccccc21 | 3.75%
7 | CN1CCc2c(c3ccccc3n2-c2ccccc2)C1 | -1.42%
8 | Cn1c2c(c(=O)[nH]c1=O)C1(O)C(=O)c3ccccc3C1(O)N2 (stereo not drawn) | 2.76%
9 | O=C(NCCSc1ccccc1)c1ccc2ccccc2n1 | -1.55%
10 | Cn1c(=O)c2nc(-c3cccc(O)c3)[nH]c2n(C)c1=O | -3.05%
11 | CCOC(=O)N1CCN(C(=O)NC23CC4CC(CC(C4)C2)C3)CC1 | -3.77%
12 | C=Cc1ccc(Cn2c(C)c(CNCCC3=CCCCC3)c(C(=O)O)c2C)cc1 | -0.23%
13 | CCN(Cc1ccccc1)Cc1ccccn1 | -2.21%
14 | CC(NC(=O)Cn1c(-c2nonc2N)nc2ccccc21)c1ccccc1 (stereo not drawn) | -1.81%
15 | CCN1CCC(NCCc2cccc(Cl)c2)CC1 | 0.217%
16 | COc1ccc(OCc2ccc(C3C(C#N)=C(N)OC4=C3C(=O)CC(C)(C)C4)cc2OC)cc1 (stereo not drawn) | -0.105%
17 | Cc1ccccc1S(=O)(=O)Cc1ccc(C(=O)NCCN2CCCCC2C)o1 (stereo not drawn) | -8.34%
18 | Cc1[nH]c(-c2ccc(F)cc2)cc1C(=O)N1CCC(N2CCCCC2)CC1 | -0.959%
19 | O=C(CNC(=S)N(Cc1ccccc1F)C1CCCCC1)NC1CCCC1 | -2.36%
20 | Nc1ccccc1-c1ccccc1N(c1ccccc1)c1ccccc1 | -5.9%
21 | CC(=O)Nc1sc2c(c1C#N)CCCC2 | 9.4%
22 | Cc1ccc(OCC(=O)Nc2ccccn2)c(-n2nc3ccccc3n2)c1 | -2.41%
23 | CC1COc2c(F)c(F)cc3c(=O)c(C(=O)O)cn1c23 (stereo not drawn) | -1.29%
24 | C=CCn1c(N2CCCCC2)nc2c1c(=O)[nH]c(=O)n2C | -3.63%
25 | Cc1ccc2[nH]c3c(c2c1)CC/C(=C/c1ccco1)C3=O | -5.51%
26 | COC(=O)c1cc(S(=O)(=O)NCCCc2ccco2)c[nH]1 | 3.78%

Row | SMILES | % Inhibition @ 10 uM
27 | O=C(c1ccc2c(c1)C(=O)N(CCCO)C2=O)c1ccc2c(c1)C(=O)N(CCCO)C2=O | 2.65%
28 | Cc1cccc(Cn2c(CCNC(=O)C(C)(C)C)nc3ccccc32)c1 | 2.73%
29 | COc1ccc2c(c1)-c1nc(N)sc1CC2 | 0.345%
30 | Cc1ccnc(NS(=O)(=O)c2ccc(NC(=O)c3cccnc3)cc2)n1 | 0.138%
31 | Cc1ccc(C(=O)N/C(=C\c2cccc(Oc3ccccc3)c2)C(=O)NC2CCS(=O)(=O)C2)cc1 (stereo not drawn) | -1.29%
32 | COc1ccccc1C1C(C#N)=C(N)Oc2nc(O)nc(O)c21 (stereo not drawn) | -6.75%
33 | O=C(O)C1CC=CCC1C(=O)c1ccc(Br)cc1 (stereo not drawn) | -0.949%
34 | CCN(CC)c1ccc(NC(=O)CCC(=O)O)cc1 | 1.88%
35 | Cc1nn(-c2ccccc2)c2c1C1(C(=O)Nc3ccc(Br)cc31)C(C#N)=C(N)O2 (stereo not drawn) | 1.08%
36 | N=C(Cc1cccc2ccccc12)NOC(=O)N1CCOCC1 | -1.47%
37 | CC(C)C1C(C#N)=C(N)Oc2nc(SCc3ccccc3)nc(O)c21 (stereo not drawn) | -2.14%
38 | O=C(COc1ccc(S(=O)(=O)NC2CCCCC2)cc1)N1CCN(c2cccc(Cl)c2)CC1 | 1.88%
39 | CCOC(=O)c1sc(NC(=O)CSc2nnnn2C2CCCCC2)nc1C | 4.46%
40 | O=C(c1ccc(C(=O)N2CCN(Cc3ccccc3)CC2)cc1)N1CCN(Cc2ccccc2)CC1 | 1.39%
41 | CC(C)(C)NC(=O)CC(c1ccccc1)c1cc(Br)ccc1O (stereo not drawn) | -1.81%
42 | C=Cc1ccc(Cn2c(C(=O)O)c(CNCc3ccc4c(c3)OCO4)c3ccc(C)cc32)cc1 | 0.00226%
43 | Cc1cc(C)n(C(=O)CCN2C(=O)c3ccccc3C2=O)n1 | 9.09%
44 | Cc1ccc(CC2CC(=O)N(Cc3ccco3)C2=O)cc1 (stereo not drawn) | 0.674%
45 | CCOc1ccc(NC(=O)c2ccccc2N)cc1 | -2.44%
46 | COc1cccc(C2C3=C(O)CCCC3=NC(C)=C2C(=O)Nc2ccccc2C)c1 (stereo not drawn) | 2.36%
47 | O=C(Cn1nnc2sc(-c3ccccc3)cc2c1=O)NCCc1ccccc1 | -6.43%
48 | CCCC1Cc2nc(N3CCCCC3)c(C#N)cc2CO1 (stereo not drawn) | -0.403%
49 | O=C(CN1CCOCC1)Nc1c(C(=O)c2ccc(F)cc2)oc2ccccc12 | -1.44%
50 | Cc1ccccc1-c1nnc(CS(=O)(=O)c2ccccc2)o1 | 9.95%
51 | C=CCN1C(=O)/C(=C\c2ccc(Cl)cc2Cl)C(C(=O)OC)=C1C | -5.11%
